Measured values: PubChem BioAssay AID686979 (National Center for Advancing Translational Sciences (NCATS), 2013)
Among all 420,000 compounds or so, about 50,000 (12%) were called active. The inconclusive results got no clear call from the source; some entries with a clear call stand among them for comparison. Calls follow the shape of the dose curve; as a rule, active = well fitted inhibition curve with a large enough effect; inconclusive = small, poorly fitted or top-dose-only effect; inactive = flat fitted curve, though single readings scatter. No potency is given beside an inconclusive call; the fits are too rough.

Test: qHTS for Inhibitors of human tyrosyl-DNA phosphodiesterase 1 (TDP1): qHTS in cells in presence of CPT; also: nearly all actives have a fitted effect of over 55% in size
Details: chicken DT40 Tdp1-/-;hTDP1 cells + 20 nM CPT, ATP luminescence, 48 h; activity change, negative = growth inhibition: at 46.2 µM (top of the series) unless noted
Procedure, shortened: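 Cell growth measured by CellTiter-Glo luminescence after a minimum 48 h, 37 C compound exposure with 20 nM CPT in Tdp1-knockout DT40 cells stably expressing hTDP1, seeded 400/well; qHTS titration format.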
% is scaled to controls: 0 for no effect and ±100 for the full control effect; potency is read from the fitted curve at half-maximal effect; tags tell the direction and shape of the fitted curve.

Row | SMILES | Potency | activity change, negative = growth inhibition
1 | CN(c1ccccc1)S(=O)(=O)c1nnc(NC(=O)C2CCCCC2)s1 | inactive | 
2 | COCC(=O)N1CCC(Oc2ccc(C(=O)N(C)CCCC3CCCC3)cc2)CC1 | active: 18.4 µM | 
3 | O=C(Nc1nnc([C@@H]2C[C@H](O)[C@@H](CO)O2)s1)c1cccc(Cl)c1 | inactive | 
4 | CN(C)CCn1c(=O)n(Cc2ccco2)c(=O)c2c3c(sc21)CCCCC3 | inconclusive [inhibitor, single point] | 
5 | CC1CCC(NC(=O)COC(=O)C2CC3CCCC(C2)C3=O)CC1 (stereo unspecified) | inactive | 
6 | CC(C)(C)OC(=O)N1CCN(c2ccc(NC(=O)Cn3nnc(-c4ccccc4)n3)cc2)CC1 | inconclusive [inhibitor, partial curve] | 
7 | Cc1cccc(N/C(=N/S(=O)(=O)c2ccccc2)c2ccccc2)n1 |  | inconclusive: -30.3% [inhibitor]
8 | COc1ccc(-c2ccc(C(=O)Nc3ccccc3)c3occc23)c(C)c1 | active: 20.6 µM | 
9 | Cc1ccc(C(=O)NNC(=S)NC(=O)c2ccc(Cl)cc2Cl)cc1 | inconclusive [inhibitor, single point] | 
10 | COc1ccc(C(=O)N2CCCC(CNC(=O)c3ccccc3Cl)C2)o1 (stereo unspecified) | inactive | 
11 | COc1cccc(C(=O)N(Cc2cccnc2)c2nc3c(OC)ccc(C)c3s2)c1OC | inconclusive [inhibitor, single point] | 
12 | O=C(N=Nc1c(O)[nH]c2ccc(Br)cc12)c1cc(-c2cccs2)nc2ccccc12 | active: 4.61 µM | 
13 | Cc1c(CCOC(=O)c2cc([N+](=O)[O-])cc([N+](=O)[O-])c2)sc[n+]1CC(=O)c1ccc(Br)cc1 | inconclusive [inhibitor, single point] | 
14 | COc1ccccc1OCCSc1nc2ccc([N+](=O)[O-])cc2s1 | inconclusive [inhibitor, single point] | 
15 | COc1ccc(C2(CO)OC(CO)C(O)C2O)cc1 (stereo unspecified) | inconclusive [inhibitor, single point] | 
16 | Cc1cccc(-c2nnc(SC(C)C(=O)N3CCOCC3)o2)c1 (stereo unspecified) | inactive | 
17 | COc1ccc(Cc2nnc3sc(SCC(=O)Nc4ccccc4)nn3c2=O)cc1OC | inconclusive [inhibitor, single point] | 
18 | Cc1c(NC(=O)Nc2cc(Cl)ccc2Cl)c(=O)n(-c2ccccc2)n1C | inactive | 
19 | CN1CCC(CN)(N2CCN(c3ccccc3)CC2)CC1 | inconclusive [inhibitor, single point] | 
20 | CCN(C[C@H]1N[C@@](CC)(C(=O)OC)[C@H]2C(=O)N(C)C(=O)[C@@H]12)S(=O)(=O)c1ccc(C(F)(F)F)cc1 | inactive | 
21 | O=C(O)C1CSCN1S(=O)(=O)c1cccc2nsnc12 (stereo unspecified) | inconclusive [inhibitor, single point] | 
22 | COc1ccc(C(C(=O)NC2CCCCC2)N(C(=O)c2cccs2)c2ccc3c(c2)OCO3)cc1 (stereo unspecified) | inconclusive [inhibitor, single point] | 
23 | Cc1cccc(C)c1Nc1nc2ccccc2o1 | inconclusive [inhibitor, single point] | 
24 | CCCC(=O)Nc1ncnc2c1ncn2[C@@H]1O[C@@H]2OP(=O)(O)OC[C@H]2[C@H]1OC(=O)CCC | inactive | 

Row | SMILES | Potency | activity change, negative = growth inhibition
25 | Cc1sc2ncnc(N3CCC(C(=O)NNC(=O)c4ccccc4Cl)CC3)c2c1C | active: 14.6 µM | 
26 | CCOc1cc(C2CC(=O)Nc3cc4c(cc32)OCCO4)ccc1O (stereo unspecified) | active: 18.4 µM | 
27 | c1ccc(-c2nc3nc4ccccc4nc3n2CC2CCCO2)cc1 (stereo unspecified) | inconclusive [inhibitor, partial curve] | 
28 | CCc1nc2ccc(C(=O)Nc3cccc(OCC(=O)N(C)C)c3)cn2c1N(CC)CCOC | active: 16.4 µM | 
29 | Cc1ccc(NC(=O)Nc2nc(-c3ccc(C)s3)cs2)cc1 | inconclusive [inhibitor, single point] | 
30 | Cc1ccccc1C(=O)NCc1nnc(SCC(=O)N2c3ccccc3Sc3ccccc32)n1C | inconclusive [inhibitor, single point] | 
31 | CCOc1ccc(CCN2C(=S)N([C@@H](CC(C)C)CN3CCCC3CN3C(=S)NC[C@@H]3CC(C)C)C[C@@H]2CC(C)C)cc1 (stereo partly specified) | inconclusive [inhibitor, single point] | 
32 | CC(C)(C)C1COc2ccccc2N1C(=O)c1cccc(Cl)c1 (stereo unspecified) | inconclusive [inhibitor, single point] | 
33 | COCCN(C(=O)COC(=O)CCSc1ccc(F)cc1)c1c(N)n(Cc2ccccc2)c(=O)[nH]c1=O | inactive | 
34 | CC(=O)N(C(C)=O)c1nc(-c2ccccc2)cn1/N=C/c1ccccc1 |  | inconclusive: -31.5% [inhibitor]
35 | CC(=O)c1ccc(NC(=O)CN2C(=O)COc3ccc(S(=O)(=O)N4CCCC4)cc32)cc1 | inconclusive [inhibitor, single point] | 
36 | Cn1cnc(S(=O)(=O)N2CCCCC2c2cc(C(=O)Nc3cccc4c3CCCC4)no2)c1 (stereo unspecified) | active: 20.6 µM | 
37 | Nc1c2nc(-c3ccccc3)[nH]c(=O)c2nc(=O)n1-c1ccccc1 | inconclusive [inhibitor, single point] | 
38 | CCOC(=O)/C(C#N)=C/c1c(N2CCN(c3ccc(OC)cc3)CC2)nc2c(C)cccn2c1=O | inconclusive [inhibitor, single point] | 
39 | CCOc1ccccc1NS(=O)(=O)c1ccc2c(c1)CC(C)N2C(=O)C1CCC1 (stereo unspecified) | active: 23.1 µM | 
40 | O=C(/C=C/c1ccccc1)CCN1CCCCC1 | active: 1.16 µM | 
41 | O=C(O)CCC(=O)CCC(=O)c1ccc(Cl)cc1 | inactive | 
42 | Cc1ccc(CN(C)C(=O)CN2C(=O)NC(c3ccccc3)(c3ccccc3)C2=O)c(C)c1 | inconclusive [inhibitor, single point] | 
43 | C[C@H](CO)N1C[C@H](C)[C@@H](CN(C)Cc2ccc(Oc3ccccc3)cc2)Oc2ccc(NC(=O)Cn3cnnn3)cc2C1=O | inconclusive [inhibitor, single point] | 
44 | COc1ccc(CCNS(=O)(=O)c2cc3c4c(c2)CCN4C(=O)CC3)cc1 | inactive | 
45 | CC(C)Cn1c(/C=C/c2ccccc2)nc2ccccc21 | inconclusive [inhibitor, single point] | 
46 | CN(C)S(=O)(=O)c1cccc(NC(=O)COC(=O)c2cn(-c3ccccc3)nc2-c2ccccc2)c1 | inconclusive [inhibitor, single point] | 
47 | COc1ccc(C(=O)N/N=C/c2cc(Br)ccc2O)cc1OC | active: 2.31 µM | 
48 | Clc1ccc(Cn2nnc(-c3ccc(CN4CCOCC4)cc3)n2)cc1 | inconclusive [inhibitor, single point] | 

Row | SMILES | Potency | activity change, negative = growth inhibition
49 | Cc1oc2cc(O)ccc2c(=O)c1-c1ccccc1 | inconclusive [inhibitor, partial curve, poor fit] | 
50 | COCCCN1C(=O)C(CC(=O)NCc2ccco2)CC(C(=O)N(C(C)C)C(C)C)=C1C (stereo unspecified) | inactive | 
51 | Cc1cc(-c2ccccc2)nc(N/N=C/c2ccccc2)n1 | active: 20.6 µM | 
52 | c1cncc(-c2nc(NCc3ccco3)c3ccccc3n2)c1 | inactive | 
53 | COC(=O)/C=C1\SC(=NC(=O)c2cccc([N+](=O)[O-])c2)NC1=O | inconclusive [inhibitor, single point] | 
54 | Cc1cccc(C(=O)N(NC(=O)Oc2ccccc2)C(C)(C)C)c1 | inactive | 
55 | Cn1c(=O)cc(OCC(=O)NCCCN2CCN(Cc3ccccc3)CC2)c2ccccc21 | inconclusive [inhibitor, single point] | 
56 | Cc1cccn2c(=O)c3cc(C(=O)NCCN4CCOCC4)c(=N)n(Cc4cccnc4)c3nc12 | active: 13 µM | 
57 | CCOC(=O)CSc1ncnc2c1cnn2-c1ccccc1 |  | inconclusive: -31.3% [inhibitor]
58 | CCn1cc(SCC(=O)N2CCc3ccccc32)c2ccccc21 | inconclusive [inhibitor, single point] | 
59 | Cc1ccc(S(=O)(=O)N(CC(O)CN2CCOCC2)c2cc(Cl)ccc2Cl)cc1 (stereo unspecified) | inconclusive [inhibitor, single point] | 
60 | Cc1nn(Cc2ccccc2)c(C)c1C(=O)OCC(=O)c1cc(C)n(CC(F)(F)F)c1C | active: 25.9 µM | 
61 | COCCNC(=O)CN(c1ccc(F)cc1)S(=O)(=O)c1ccc2c(c1)OCCO2 | inactive | 
62 | Cc1cccc(C(=O)NCC(c2ccc(F)cc2)N2CCOCC2)c1 (stereo unspecified) | inactive | 
63 | CC(=O)Nc1cc(-c2ccc(F)cc2)cn2c(-c3ccc(S(C)(=O)=O)cc3)cnc12 | inconclusive [inhibitor, single point] | 
64 | Nc1ncnc2c1nc(Cl)n2C1OC(CO)C(O)C1O (stereo unspecified) | active: 0.366 µM | 
65 | CN(N=O)C(=O)N[C@@H]1[C@@H](O)[C@H](O)[C@@H](CO)O[C@@H]1O | inactive | 
66 | COc1ccc(OCc2cc(C(=O)NCC(C)Oc3cccnc3)no2)c(Cl)c1 (stereo unspecified) | inconclusive [inhibitor, single point] | 
67 | CCN(CC)C(=O)Cc1c(OC)ccc2cc(Br)ccc12 | inconclusive [inhibitor, single point] | 
68 | Cc1cc2cc(C(c3nnnn3Cc3ccco3)N3CCCCC3)c(=O)[nH]c2cc1C (stereo unspecified) | inactive | 
69 | C/C(CC(=O)NCc1ccc(Cl)cc1)=N\NC(=O)COc1ccc(C)cc1Br | active: 16.4 µM | 
70 | O=C(CN1C(=O)CCC1=O)Nc1ccc(Br)cc1 | inconclusive [inhibitor, single point] | 
71 | COc1c(F)c(F)c(C(=O)Nc2ccc(NC(=O)Cc3ccccc3)cc2)c(F)c1F | inactive | 
